{
  "source": "PubChem BioAssay AID445",
  "about": "(National Center for Advancing Translational Sciences (NCATS), 2006)",
  "note": "Hit rate of the full screen: of about 110,000 compounds, about 40 (0.04%) were called active. Inconclusive results, whose numbers are uncertain, are shown with a selection of clear calls. Calls follow the shape of the dose curve; as a rule, active = well fitted curve in the direction sought with a large enough effect in the signal ratio (not every such curve was filed as active); inconclusive = small, poorly fitted or top-dose-only effect, or a change in a side signal; inactive = flat fitted curve, though single readings scatter; the % refers to the signal ratio. A potency beside an inconclusive call is a rough fit, not a confirmed value. Potency is read from the fitted curve at half-maximal effect.",
  "data": [
    {"assay": "IkB Signaling;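 as to IkBa stabilization activation: 0% = basal untreated cells and 100% = reference inhibitor full response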", "conditions": "ABC-DLBCL IkBa-CBG/CBR dual luciferase ratio (green luciferase fused to IkBa over red control in OCI-Ly3 lymphoma cells), 4 h; IkBa stabilization activation: at 57.1 µM (top of the series), scaled: untreated 0%, proteasome inhibitor 100% unless noted", "procedure,_shortened": "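Luminescence ratio of IκBα-fused green versus native red beetle luciferase in OCI-Ly3 cells, 4 h post-doxycycline with compound; red signal alone, scaled from basal (0%) to zero light (-100%), flagged nonspecific or cytotoxic effects.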", "values": [
      {"compound": "N#Cc1nc(COc2ccc(Br)cc2)oc1N1CCCCCC1", "IkBa stabilization activation": "inactive: 4.07%"},
      {"compound": "COc1cc(-c2nnn(CC(=O)Nc3ccc(OC(F)(F)F)cc3)n2)cc(OC)c1OC", "IkBa stabilization activation": "inactive: 0.362%"},
      {"compound": "CCOC(=O)c1c(C)[nH]c(CCC(=O)Nc2cc(C)ccc2OC)c1C", "IkBa stabilization activation": "inconclusive: 0.247% [signal inhibitor]"},
      {"compound": "CCN(CC)S(=O)(=O)c1ccc2oc(C(=O)NCC3COc4ccccc4O3)c(C)c2c1", "note": "(centres undefined)", "IkBa stabilization activation": "inconclusive: 1.86% [signal inhibitor]"},
      {"compound": "COc1cc(NC(=O)CC2C(=O)N(c3ccc(Cl)cc3)C(=O)N2Cc2cccs2)cc(OC)c1", "note": "(centres undefined)", "IkBa stabilization activation": "inconclusive: -1.59% [signal inhibitor]"},
      {"compound": "Cc1ccc(C(=O)NCc2ccc(N(C)C)cc2)cc1NC(=O)c1nsc2ccccc12", "IkBa stabilization activation": "inconclusive: 2.21% [signal inhibitor]"},
      {"compound": "CN1C(C(=O)Nc2ccc(F)cc2F)=CC(c2ccco2)=NS1(=O)=O", "IkBa stabilization activation": "inconclusive: 2.81% [signal inhibitor]"},
      {"compound": "O=C(CSCc1ccccc1Cl)N1CCN(c2ccc(F)cc2)CC1", "IkBa stabilization activation": "inconclusive: -1.61% [signal inhibitor]"},
      {"compound": "Cc1cccc(C)c1NC(=O)c1oc2ccc3c(c2c1C)C(=O)CC(C)(C)O3", "IkBa stabilization activation": "inconclusive: -0.159% [signal inhibitor]"},
      {"compound": "O=C(Cn1ncc2c1-c1ccccc1OC2)N1CCN(c2ccccc2F)CC1", "IkBa stabilization activation": "inconclusive: 1.19% [signal inhibitor]"},
      {"compound": "COc1ccccc1CNC(=O)C1CCCN(S(=O)(=O)c2ccc3c(c2)CCCN3C(C)=O)C1", "note": "(centres undefined)", "IkBa stabilization activation": "inconclusive: 2.12% [signal inhibitor]"},
      {"compound": "O=C(CSc1nc2ccccc2o1)Nc1ccccc1N1CCCCCC1", "IkBa stabilization activation": "inconclusive: 7.93% [signal inhibitor]"},
      {"compound": "CCc1nn2c(=O)cc(COC(=O)c3cccc(NC(=O)c4ccccc4Cl)c3)nc2s1", "IkBa stabilization activation": "inconclusive: 5.53% [signal inhibitor]"},
      {"compound": "Cc1ccc(CNC(=O)C2CCCN(S(=O)(=O)c3cccc4nsnc34)C2)cc1", "note": "(centres undefined)", "IkBa stabilization activation": "inconclusive: 1.03% [signal inhibitor]"},
      {"compound": "CCCn1ccc2c(OCC(=O)NCc3ccc(C)cc3)cccc2c1=O", "IkBa stabilization activation": "inconclusive: 2.12% [signal inhibitor]"},
      {"compound": "Cc1cc(C)nc(NCCCc2ccccc2)n1", "IkBa stabilization activation": "inactive: 1%"},
      {"compound": "Cc1cccc(NC(=O)c2ccc(N(Cc3ccccc3)S(C)(=O)=O)cc2)c1", "IkBa stabilization activation": "inconclusive: 11.9% [signal inhibitor]"},
      {"compound": "CCN(CCCNC(=O)c1cc2c(=O)n(C)c3ccccc3c2s1)Cc1ccccc1", "IkBa stabilization activation": "inconclusive: 2.49% [signal inhibitor]"},
      {"compound": "Cc1ccc2c(c1)C(c1ccc(F)cc1)N(C(=O)COc1ccc(Cl)cc1Cl)CC(=O)N2", "note": "(centres undefined)", "IkBa stabilization activation": "inconclusive: 5.07% [signal inhibitor]"},
      {"compound": "CCCCN(CCCC)S(=O)(=O)c1ccc(C(=O)Nc2nnc(COC)o2)cc1", "IkBa stabilization activation": "inactive: -0.874%"},
      {"compound": "Cc1cc2ncn(CCCCOc3ccccc3)c2cc1C", "IkBa stabilization activation": "inconclusive: -0.496% [signal inhibitor]"},
      {"compound": "Cc1cccc(C)c1NC(=O)c1ccc2c(c1)nnn2C1CCCC1", "IkBa stabilization activation": "inactive: -0.494%"},
      {"compound": "COc1ccccc1Nc1nc(N)nc(CSc2nccc(C)n2)n1", "IkBa stabilization activation": "inactive: -1.52%"},
      {"compound": "CCNC(=O)c1ccc(NC(=O)N2CCCCc3ccccc32)cc1", "IkBa stabilization activation": "inactive: -0.475%"},
      {"compound": "COc1ccc(Cc2nn3c(Cn4nnc5ccccc54)nnc3s2)cc1", "IkBa stabilization activation": "inactive: 0.66%"},
      {"compound": "Cc1ccc(OCc2nnc(SCC(=O)Nc3ccc4c(c3)OCCO4)n2Cc2ccco2)cc1", "IkBa stabilization activation": "inconclusive: 4.41% [signal inhibitor]"},
      {"compound": "Cc1nn(CC(=O)NC2CCC(C)CC2)c(=O)c2c1sc1ccccc12", "note": "(centres undefined)", "IkBa stabilization activation": "inconclusive: -0.61% [signal inhibitor]"},
      {"compound": "CCn1cc2nc(SCC(=O)Nc3cc(OC)cc(OC)c3)n(Cc3ccc(Cl)cc3)c(=O)c2n1", "IkBa stabilization activation": "inconclusive: -0.705% [signal inhibitor]"},
      {"compound": "CCC(=O)Nc1ccc(NC(=O)c2ccco2)cc1", "IkBa stabilization activation": "inactive: 2.66%"},
      {"compound": "Cc1ccc2oc(-c3ccc(NC(=O)CCC(=O)O)cc3)nc2c1", "Potency": "inconclusive: 15.8 µM [signal inhibitor, partial curve]"},
      {"compound": "Nc1ncn([C@H]2O[C@@H](CO)[C@@H](O)[C@@H]2O)c(=O)n1", "Potency": "inconclusive: 2 µM [rising, full curve]"},
      {"compound": "CCOc1ccc(NC(=O)c2sc3nc4n(c(=O)c3c2C)CCC4)cc1", "IkBa stabilization activation": "inconclusive: 1.71% [signal inhibitor]"},
      {"compound": "Cc1nn(Cc2ccc(Cl)c(Cl)c2)c(C)c1NC(=O)c1cc(CC(C)C)on1", "IkBa stabilization activation": "inconclusive: 2.46% [signal inhibitor]"},
      {"compound": "Cc1cccc(CN2C(=O)c3ccccc3Sc3ccc(C(=O)NC4CCCCC4)cc32)c1", "IkBa stabilization activation": "inconclusive: 1.08% [signal inhibitor]"},
      {"compound": "CNc1ncnc2ccc(-c3cccc(NS(C)(=O)=O)c3)cc12", "IkBa stabilization activation": "inconclusive: -1.71% [signal activator] [at 11.4 µM, scaled: untreated 0%, proteasome inhibitor 100%]"},
      {"compound": "Cc1cccc(CNC(=O)C2CCC(CNS(=O)(=O)c3ccc4c(c3)CCCC(=O)N4)CC2)c1", "note": "(centres undefined)", "IkBa stabilization activation": "inactive: -2.15%"},
      {"compound": "CC(C)(C)c1ccc(C(=O)NCC(c2cccnc2)N2CCc3ccccc3C2)cc1", "note": "(centres undefined)", "IkBa stabilization activation": "inactive: -2.84%"},
      {"compound": "O=C(Nc1ccc2nc(SCC(=O)N3CCOCC3)sc2c1)c1cccc(Br)c1", "IkBa stabilization activation": "inconclusive: -1.53% [signal inhibitor]"},
      {"compound": "Cc1cc(C)c(NC(=O)CN2C(=O)NC3(CCCCC3)C2=O)c(C)c1", "IkBa stabilization activation": "inactive: 0.838%"},
      {"compound": "C[N+]1(C)CCc2cc(O)c(O)cc2[C@H]1Cc1ccc(O)c(O)c1", "IkBa stabilization activation": "inactive: 1.46% [at 11.4 µM, scaled: untreated 0%, proteasome inhibitor 100%]"},
      {"compound": "CCN(C(=O)C1CCN(S(=O)(=O)c2cc(Br)cc3c2N(C(C)=O)CC3)CC1)c1cccc(C)c1", "IkBa stabilization activation": "inconclusive: 9.73% [signal inhibitor]"},
      {"compound": "CCC(=O)C1=C(c2ccc(F)cc2)N(C(=O)CC)n2c(nnc2-c2ccc(OC)cc2)S1", "IkBa stabilization activation": "inconclusive: 0.585% [signal inhibitor]"},
      {"compound": "Cn1c(=O)oc2cc(S(=O)(=O)CCC(=O)N3CCN(c4ccccc4F)CC3)ccc21", "IkBa stabilization activation": "inconclusive: -1.57% [signal inhibitor]"},
      {"compound": "COc1ccc(/C(O)=C(\\C#N)c2nc3ccccc3n2C)cc1OC", "IkBa stabilization activation": "inactive: 7.5%"}
    ]}
  ]
}
